Test results as given in PubChem BioAssay AID1347417 (National Center for Advancing Translational Sciences (NCATS), 2020).
Out of some 120,000 compounds screened, about 5,300 (4.4%) were called active. Entries that show only a call come without a potency. This list was built around the results that the source calls inconclusive (neither active nor inactive); the mix of calls is not that of the screen. Calls follow the shape of the dose curve; as a rule, active = well fitted inhibition curve with a large enough effect; inconclusive = small, poorly fitted or top-dose-only effect; inactive = no such curve, though single readings can be large or run the other way. A potency beside an inconclusive call is a rough fit, not a confirmed value.

test: qHTS Primary assay for Inhibitors of Plasmodium falciparum Dd2 growth in vitro; also: nearly all actives have a fitted effect of over 65% in size; settings: P. falciparum Dd2 growth, SYBR Green, 72 h; series mostly up to 28.9 µM
In short: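 Readout: SYBR Green fluorescence, 485 nm excitation, 535 nm emission, after ~16 h lysis at 37C. Before that, Dd2-infected red cells (2.5% hematocrit) grew 72 h with compound, 29 uM top final concentration.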
Potency is read from the fitted curve at half-maximal effect; tags tell the direction and shape of the fitted curve.

| Structure (SMILES) | Potency |
| --- | --- |
| Cc1cccc(C)c1NC(=O)c1nc(S(C)(=O)=O)ncc1N(Cc1ccc(C(C)(C)C)cc1)Cc1ccco1 | inconclusive: 17.8 µM [inhibitor, single point] |
| COc1ccc(C(=O)N2CCCN(S(C)(=O)=O)c3ccccc32)c(C)c1 | inconclusive: 17.8 µM [inhibitor, single point] |
| Cc1ccc(C(C(=O)NC2CCCCC2)N(C)Cc2ccccc2)cc1 (stereo not given) | inconclusive: 5.62 µM [inhibitor, partial curve, poor fit] |
| O=C(O)CCC(=O)N1Cc2ccccc2CC2(CCCCN2Cc2ccncc2)C1 (stereo not given) | inactive |
| O=c1cc(-c2cccnc2)oc2c(-c3ccc(O)c(F)c3)nccc12 | inconclusive: 2.82 µM [inhibitor, partial curve, poor fit] |
| O=c1[nH]c2cccnc2n1Cc1ccccc1 | inactive |
| N#CC1CCN(C(=O)c2cc(Br)cn3ccnc23)CC1 | inactive |
| NC(=O)c1nc(CNC(=O)CC(c2ccccc2)c2cccc(Cl)c2)no1 (stereo not given) | inactive |
| COc1ccc(Cn2ccnc2SCC(=O)Nc2ccc3c(c2)OCO3)cc1 | inactive |
| CCN1C(=O)CCc2cc(NC(=O)c3ccc(C(C)C)cc3)ccc21 | inconclusive: 14.1 µM [inhibitor, partial curve, poor fit] |
| COc1ccc(CN2C(=O)COC[C@@H]2[C@H](O)c2ccc(NC(=O)CC(C)(C)C)cc2)cc1 | inconclusive: 10 µM [inhibitor, single point] |
| COCc1nc(-c2ccc(OC3CN(C(=O)c4cccc(OC)c4)C3)cc2)no1 | inactive |
| O=C(NCc1cccs1)c1ccc(CN2C(=O)NC3(CCS(=O)(=O)CC3)C2=O)cc1 | inconclusive: 0.126 µM [inhibitor, full curve, poor fit] |
| O=C(N[C@@H]1CN(C(=O)c2cccc3[nH]ccc23)CC[C@@H]1CO)C1CC1 | inactive |
| CN(C)c1ccc(CN2CCn3c(nn(-c4ccc(F)cc4F)c3=O)C2)cc1 | inactive |
| C=CCNC(=O)CCc1c(C)nn(-c2ccccc2C)c1Oc1cccc(F)c1 | inactive |
| COC(=O)CNC(=O)c1nc(-c2ccc([S+](C)(=O)[O-])cc2)c2cnccn12 | inconclusive: 17.8 µM [inhibitor, single point] |
| COc1cccc([S+](=O)([O-])N2CCC3(C2)OC(=O)Nc2cnccc23)c1 (stereo not given) | inactive |
| CS(=O)(=O)N[C@H]1CCN2C(=O)c3cc(-c4cccc(C(F)(F)F)c4)ccc3NC(=O)[C@@H]2C1 | inactive |
| CC(=O)N1CCc2c(sc3c2c(=O)n(-c2cccc(Cl)c2C)c(=O)n3Cc2ccccc2C)C1 | active: 8.91 µM |
